# Assay results from publication PMC12136788.
# Positions count from the first letter of the chain named. The list shows a part of the results.
# B1: chr17:74609884:74612652:-|three_prime_utr|ENSG00000186407|control|control|control (ssRNA)
# RNA: GGGAGUUCUACAGUCCGACGAUCGACCUGUGGACUCUGGAGGGAUUUAUUGUUCCUGUGCCUCAAAGGAGGGUCCUGGCUCUUAGAGGACACUCCUCUGGAGUCCUCAAUGUGCAGCUUGGGGGUCCUCCUUUCUCCUCCCCACAACAGAGGAUUGAGCAUCA
# B2: chr5:148417036:148417137:+|CDS|ENSG00000145868|unk|FALSE|unique (ssRNA)
# RNA: GGGAGUUCUACAGUCCGACGAUCGGUUGUGCUCGAGUUGGUCUGAGUGCAGGCACAGGAAUUGGUGUUUCAUCAGCUCUUGUUAGCAACCAGAACUCCAACAAUGACGAUAAUAAUGCCCAGAAUAACAAUGCCAACAUCCACCAACAGAGGAUUGAGCAUCA
# B3: chr1:55067125:55067226:-|3pUTR|ENSG00000162402|msi1|total|mutant (ssRNA)
# RNA: GGGAGUUCUACAGUCCGACGAUCUAUCAUCGCUGGCGACUGCACUCUCAGGAGCCCAAAAUCAGGAGUGAAAUUGCCACUUCCCGUCCCCUUAUUUCCUAUGGAAACAACGCCUUCCGCACCCCCCGCACCUGCCGUCCUCACCAACAGAGGAUUGAGCAUCA
# B4: chr12:122133860:122133961:+|CDS|ENSG00000175727|msi1|FALSE|unique (ssRNA)
# RNA: GGGAGUUCUACAGUCCGACGAUCUUUUGUGCACCCCAAACCUGUAUCCUUGACUGGGGGCAGGCCUAAGCAGCCCCACAAAAUAGUGCCUGCUCCCAAACCAGAGCCCGUGUCCUUGGUGUUGAAGAAUGCCCGUAUCGCCCCCAACAGAGGAUUGAGCAUCA
# B5: chr14:75134463:75134564:-|3pUTR|ENSG00000170348|msi1|FALSE|unique (ssRNA)
# RNA: GGGAGUUCUACAGUCCGACGAUCCUGUUUGGACUAUGUUUUCUUUUCUUCUCCCACUUGCUCAGCAGCUUGGGCUUCCAUUCUAGUUCUUUUACCAAGAUUUUUGUGUGACCAUGUUGACUUCAUUUGGAUUGCCCUCUUUCACAACAGAGGAUUGAGCAUCA
# B6: chr2:32377587:32377702:+|CDS|ENSG00000115760|unk|FALSE|unique (ssRNA)
# RNA: GGGAGUUCUACAGUCCGACGAUCGGUGAAAUGUCAGUAUAUCUCUGCUGUGGAUAAAGUUAUAUUUGUGGAUGAUUAUGCAGUAGGGUGUAGGAAGGACCUUAAUGGAAUCUUGUUGUUAGACACUGCUCUGCAAACUCCAGUCAACAGAGGAUUGAGCAUCA
# B7: ENSG00000070961:be:win_1601|CDS|ENSG00000070961|bound_else_gene|NA|bound_elsewhere_windowed (ssRNA)
# RNA: GGGAGUUCUACAGUCCGACGAUCAGGGUGGAUUACCUCGUCACGUUGGUAAUAAAACUGAAUGUGCCUUGUUGGGACUUCUUUUGGAUUUAAAACGGGAUUAUCAGGAUGUUAGAAAUGAAAUACCAGAAGAAGCACUGUACACAACAGAGGAUUGAGCAUCA
# B8: chr20:58910839:58911044:+|3pUTR|ENSG00000087460|msi1_unk|FALSE|overlapping (ssRNA)
# RNA: GGGAGUUCUACAGUCCGACGAUCCCUUAAGCACAAUUAAUUAAAAGUGAAACGUAAUUGUACAAGCAGUUAAUCACCCACCAUAGGGCAUGAUUAACAAAGCAACCUUUCCCUUCCCCCGAGUGAUUUUGCGAAACCCCCUUUCAACAGAGGAUUGAGCAUCA
# B9: chr17:74579364:74580001:-|three_prime_utr|ENSG00000204345|control|control|control (ssRNA)
# RNA: GGGAGUUCUACAGUCCGACGAUCGGGCGAAAGGCCCUCCCACAGAAGAAAAAACAUUUUCUUUUCUCUUCUUUUUUUCUUUCUAGAGAUAGAGUCUUGCUCUGUCACCCAGGCUGGAAUGCAAUGGUGUAAUCUCUGCUCACUCAACAGAGGAUUGAGCAUCA
# B10: ENSG00000083857:stop:overlap|stop_codon|ENSG00000083857|stop_codon|NA|stop_codon (ssRNA)
# RNA: GGGAGUUCUACAGUCCGACGAUCCACUUCCAUAUUCCAUUUUAUUUGUGGUACAUACAUUUCUCAGCCAUUUGGAAUUGUCAUAGAUACUGGCGUAAGGACAUGCUGUAUGGCUGAUUGGGCCUCUGGUAUCACUGGGAUACACAACAGAGGAUUGAGCAUCA
# B11: ENSG00000103404:stop:overlap|stop_codon|ENSG00000103404|stop_codon|NA|stop_codon (ssRNA)
# RNA: GGGAGUUCUACAGUCCGACGAUCUCUGCCCAAGAGCAAAUAAACGAACAUUCUUCCUCCUUUUCCUGAGUUGGGUCGUCCAGUAGGUAGCUGACUGAUUGGGGAGUGGUAUGUGCAGAUGGCAUUGUCUGGUCAACUGAGGAUCAACAGAGGAUUGAGCAUCA
# B12: chr13:51761002:51761103:+|3pUTR|ENSG00000139668|unk|total|mutant (ssRNA)
# RNA: GGGAGUUCUACAGUCCGACGAUCACGGCAAGAUUGUAAUCCUGCUGUAUUCCUCGCCCUCUGUAUUCUAUCCCUUUAAAAACCCGAUAUUUAAACAUUUUAUCCUAAUGUGUUUCAUCAGAACACUUUGCACACUUUCUUACUCAACAGAGGAUUGAGCAUCA
# B13: chr16:68260521:68260622:+|3pUTR|ENSG00000103066|msi1|FALSE|unique (ssRNA)
# RNA: GGGAGUUCUACAGUCCGACGAUCUCGCAGCUUCCCUGAGCUGCACCUCUUGCUAACCCCACCAUCACACUGCCACCCUGCCCUAGGGUCUCACUAGUACCAAGUGGGUCAGCACAGGGCUGAGGAUGGGGCUCCUAUCCACCCCAACAGAGGAUUGAGCAUCA
# B14: chr1:113685846:113685948:+|3pUTR|ENSG00000081026|unk|total|mutant (ssRNA)
# RNA: GGGAGUUCUACAGUCCGACGAUCUAUAUACACUUGAGGUUCUGAUCCGAGAAAGAUCUGUAAAUUGCUCAUUAUUUUUUAUACCGAUAUUUAAAAAAAACAGUUUAUGGCCUGCAUUUCUUUUACUGUCACAUUGGUUUAAUGCAACAGAGGAUUGAGCAUCA
# B15: ENSG00000136451:be:win_3301|3pUTR|ENSG00000136451|bound_else_gene|NA|bound_elsewhere_windowed (ssRNA)
# RNA: GGGAGUUCUACAGUCCGACGAUCAUUGUACAACUUUUGUAUAUAUAAAAGCUUAGGAACUUUCUGUUUAGCAGGAAGGCAACACAUUCCUACACUUUUAAUGUAUAUGUUUGUUAUAAUGUCCAUGUAAACAUGCCCUAUGUUCAACAGAGGAUUGAGCAUCA
# B16: chr1:55067125:55067226:-|3pUTR|ENSG00000162402|msi1|FALSE|unique (ssRNA)
# RNA: B3 RNA with C83U, C84A, C125U, C126A
# B17: chr6:145799413:145799514:-|3pUTR|ENSG00000118496|msi1|total|mutant (ssRNA)
# RNA: GGGAGUUCUACAGUCCGACGAUCUUAUCUCACAUACUUACAACUCAACACACAGAGUGACCAUGUGCAGCUUUCUUUUUUGUCCGAUGCCACAUCCGAAGACUCAUCGCAGUGUGUUAUAUGACAGGACAAAGCAAAAACAAACAACAGAGGAUUGAGCAUCA
# B18: chr3:15254852:15254953:-|3pUTR|ENSG00000131370|msi1|FALSE|unique (ssRNA)
# RNA: GGGAGUUCUACAGUCCGACGAUCAAACUGUUAAUUCUGUCACAGCCUGUAUAUUUUAGUCAUUUGUAAAUCUCUUCAUACAAUAGUGACUUCUUUUUUGACUGAUACAGUAUCUUAAUUACAAGGUUAUUUUGUACUUGUCUUCAACAGAGGAUUGAGCAUCA
# B19: chrX:108174439:108174621:-|CDS|ENSG00000197565|control|control|control (ssRNA)
# RNA: GGGAGUUCUACAGUCCGACGAUCCGACCUGGACCACCAGGCCUACCUGGAGCUCCUGGCCUCCCAGGCAUUAUCAAAGGAGUUAGUGGAAAGCCAGGGCCCCCUGGCUUCAUGGGAAUCCGGGGCUUACCUGGCCUGAAGGGGCAACAGAGGAUUGAGCAUCA
# B20: chr8:23842440:23842541:-|3pUTR|ENSG00000159167|msi1|FALSE|unique (ssRNA)
# RNA: GGGAGUUCUACAGUCCGACGAUCCCAAUGCGACAAGUAGUUCAUGAGUAUUCCUAGCAAAUUUCUCUCUUUCUUCAGUUCAGUAGAUUUCCUUUUUUCUUUUCUUUUUUUUUUUUUUUUUUUUUGGCUGUGACCUCUUCAAACCAACAGAGGAUUGAGCAUCA
# B21: chr16:61647241:61654101:-|three_prime_utr|ENSG00000150394|control|control|control (ssRNA)
# RNA: GGGAGUUCUACAGUCCGACGAUCAAAGAAACUUGACAGUGGAUUAUAAAUAAAUCACUGGAACUGAGCAUUCUGUAAUAUUCUAGGGUCACUCCCCUUAGAUACAACCAAUGUGGCUAUUUGUUUUAGAGGCAAGUUUAGCACCAACAGAGGAUUGAGCAUCA
# B22: chr20:59938049:59938150:-|3pUTR|ENSG00000132825|unk|total|mutant (ssRNA)
# RNA: GGGAGUUCUACAGUCCGACGAUCAAGUUUGAAACUAAGCAUUUUAAGAAGUCUUGCCUCAGUUAUUUCAGUUUUCAGGUGACCCGAGAAUUUCAGGCAACAGUGCCCUUUGCAAUUACCUUUUUGAUGAUUAAGGUGACUAUUCAACAGAGGAUUGAGCAUCA
# Molecular target: MSI1 full-length (mouse, UniProt Q61474 1-362)
# Test: nsRBNS (natural sequence RNA bind-n-seq); RBNS binding buffer (assumed for nsRBNS): 25 mM Tris pH 7.5, 150 mM KCl, 3 mM MgCl2, 0.01% Triton X-100, 500 ug/ml BSA, 20 U/ml SUPERase-In, 4 C; UNK is unkempt and MSI1 is Musashi-1; names of the RNAs are library labels; protein concentration not given here; high values mean tight binding
# Chain of UniProt Q61474 (Q61474 whole entry): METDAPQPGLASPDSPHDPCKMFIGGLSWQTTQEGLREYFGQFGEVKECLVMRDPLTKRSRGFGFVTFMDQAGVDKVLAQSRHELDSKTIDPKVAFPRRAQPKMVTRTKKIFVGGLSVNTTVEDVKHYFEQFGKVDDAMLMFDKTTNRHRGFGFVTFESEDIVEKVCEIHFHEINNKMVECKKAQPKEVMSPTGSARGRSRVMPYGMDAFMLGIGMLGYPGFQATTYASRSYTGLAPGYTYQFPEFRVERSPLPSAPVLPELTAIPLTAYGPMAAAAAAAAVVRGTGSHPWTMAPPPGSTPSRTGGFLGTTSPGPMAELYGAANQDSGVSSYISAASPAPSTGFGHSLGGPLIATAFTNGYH
row,Binder,binding signal [enrichment R]
1,B1,0.441
2,B2,0.345
3,B3,0.596
4,B4,0.519
5,B5,0.458
6,B6,0.684
7,B7,0.721
8,B8,0.824
9,B9,0.507
10,B10,0.711
11,B11,0.475
12,B12,1.22
13,B13,0.468
14,B14,1.76
15,B15,0.324
16,B16,0.591
17,B17,0.363
18,B18,0.848
19,B19,0.346
20,B20,4.22
21,B21,1.27
22,B22,1.44
